We go through twelve compounds from the supplement of paper PMC6089552.

The subject of this test is A673/TR/shEF. Nature of the test: cell viability (LOESS-normalised, relative to median of negative controls) (log2 ratio); higher = more viable cells (less compound effect), active = hit call of the paper (over 3 MAD below the median). To be noted: treatment time: 72 h. Summed up:
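A673/TR/shEF Ewing sarcoma cells (1,500 per well, 384-well plates) were grown with or without doxycycline to induce EWS-FLI1 shRNA knockdown, starting 24 h before compounds. Library compounds at two or more concentrations, with DMSO controls, were added for three days. Cell viability was read by CellTiter-Glo luminescence on an Envision reader, then LOESS-corrected per plate, divided by the median of negative controls and log2-transformed. Hits were wells at least three median absolute deviations from the median of all screened wells.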

Where [1] appears, read: 0.25 µM, library screen: screen2, EWS-FLI1 expression: high (no doxycycline).
The mark [2] stands for this setting: 0.25 µM, library screen: screen2, EWS-FLI1 expression: low (doxycycline-induced shRNA knockdown).
Setting [3] is: 2.5 µM, library screen: screen2, EWS-FLI1 expression: high (no doxycycline).
Setting [4] is: 2.5 µM, library screen: screen2, EWS-FLI1 expression: low (doxycycline-induced shRNA knockdown).
Where [5] appears, read: 0.25 µM, library screen: screen1, EWS-FLI1 expression: high (no doxycycline).
[6] abbreviates: 0.25 µM, library screen: screen1, EWS-FLI1 expression: low (doxycycline-induced shRNA knockdown).
The mark [7] stands for this setting: 2.5 µM, library screen: screen1, EWS-FLI1 expression: high (no doxycycline).
[8] abbreviates: 2.5 µM, library screen: screen1, EWS-FLI1 expression: low (doxycycline-induced shRNA knockdown).
Where [9] appears, read: 25 µM, library screen: screen3, EWS-FLI1 expression: high (no doxycycline).

Structures are written as SMILES. Hit rate of the full screen: of about 3,200 compounds, about 300 (9.4%) showed activity. The list shows a part of the results, in another mix than the full data.

In the case of `COc1ccc(C(=O)NCc2cccnc2)cc1C(=O)NCc1cccnc1`, the “cell viability (log2)” value under setting [1] is inactive: 0.0996, the “cell viability (log2)” value under setting [2] is inactive: -0.0166, the “cell viability (log2)” value under setting [3] is inactive: 0.145 and the “cell viability (log2)” value under setting [4] is inactive: 0.053.

Take `Cc1ccc(S(=O)(=O)NC(=O)NN2CC3CCCC3C2)cc1` (stereo not given): the “cell viability (log2)” value under setting [5] is inactive: 0.204, the “cell viability (log2)” value under setting [6] was inactive: 0.195, the “cell viability (log2)” value under setting [7] was inactive: 0.233 and the “cell viability (log2)” value under setting [8] was inactive: 0.201.

With `COc1ccc(-c2cc(=O)c3c(O)cc(O)cc3o2)cc1`, the “cell viability (log2)” value is, setting by setting: under setting [5], inactive: 0.108; under setting [6], inactive: 0.0451; under setting [7], inactive: 0.189; under setting [8], inactive: 0.17.

For `COc1cccc(CN2CCN(Cc3ccc(C(F)(F)F)cc3)CC2)c1OC`, the “cell viability (log2)” value is inactive: 0.159 under setting [5], inactive: 0.109 under setting [6], inactive: 0.129 under setting [7] and inactive: 0.101 under setting [8].

As to `CC(=O)N[C@@H](CC(=O)N[C@@H](CCC(=O)O)C(=O)O)C(=O)O`, the “cell viability (log2)” value by setting is: under setting [5], inactive: 0.166; under setting [6], inactive: 0.108; under setting [7], inactive: 0.213; under setting [8], inactive: 0.109.

Consider `O=c1c(O)c(-c2cc(O)c(O)c(O)c2)oc2cc(O)cc(O)c12`, for which the “cell viability (log2)” value is inactive: 0.0195 under setting [5]; inactive: 0.156 under setting [6]; inactive: 0.118 under setting [1]; inactive: 0.093 under setting [2]; inactive: 0.0517 under setting [7]; inactive: 0.0582 under setting [8]. Moreover, the “cell viability (log2)” value is inactive: 0.111 under setting [3] and inactive: 0.0599 under setting [4].

Turning to `O=C(O)c1cc2ccccc2[nH]1`, the “cell viability (log2)” value is, setting by setting: under setting [5], inactive: 0.123; under setting [6], inactive: 0.0929; under setting [7], inactive: 0.0969; under setting [8], inactive: 0.132.

Take `NCCS(=O)(=O)O`: the “cell viability (log2)” value by setting is: (0.103 µM, library screen: screen3, EWS-FLI1 expression: high (no doxycycline)) inactive: 0.0698; (0.103 µM, library screen: screen3, EWS-FLI1 expression: low (doxycycline-induced shRNA knockdown)) inactive: 0.0172; under setting [1], inactive: 0.24; under setting [2], inactive: 0.0346; (0.308 µM, library screen: screen3, EWS-FLI1 expression: high (no doxycycline)) inactive: 0.0898; (0.308 µM, library screen: screen3, EWS-FLI1 expression: low (doxycycline-induced shRNA knockdown)) inactive: 0.0123. Further, the “cell viability (log2)” value by setting is: (0.926 µM, library screen: screen3, EWS-FLI1 expression: high (no doxycycline)) inactive: 0.0831; (0.926 µM, library screen: screen3, EWS-FLI1 expression: low (doxycycline-induced shRNA knockdown)) inactive: 0.00375; under setting [3], inactive: 0.16; under setting [4], inactive: 0.0945; (2.8 µM, library screen: screen3, EWS-FLI1 expression: high (no doxycycline)) inactive: -0.015; (2.8 µM, library screen: screen3, EWS-FLI1 expression: low (doxycycline-induced shRNA knockdown)) inactive: 0.0346. The “cell viability (log2)” value reads like this: (8.3 µM, library screen: screen3, EWS-FLI1 expression: high (no doxycycline)) inactive: 0.00366; (8.3 µM, library screen: screen3, EWS-FLI1 expression: low (doxycycline-induced shRNA knockdown)) inactive: 0.0799; under setting [9], inactive: -0.00518; (25 µM, library screen: screen3, EWS-FLI1 expression: low (doxycycline-induced shRNA knockdown)) inactive: 0.0747.

On to `COc1cc2nc(N3CCN(C(=O)c4ccco4)CC3)nc(N)c2cc1OC`, for which the “cell viability (log2)” value is, setting by setting: under setting [5], inactive: 0.118; under setting [6], inactive: 0.0665; under setting [1], inactive: 0.286; under setting [2], inactive: 0.101; under setting [7], inactive: 0.14; under setting [8], inactive: 0.108. The “cell viability (log2)” value is, setting by setting: under setting [3], inactive: 0.255; under setting [4], inactive: 0.216.

Turning to `CCn1cc(C(=O)O)c(=O)c2cnc(N3CCNCC3)nc21`, the “cell viability (log2)” value is, setting by setting: under setting [5], inactive: 0.0531; under setting [6], inactive: 0.0384; under setting [7], inactive: 0.0127; under setting [8], inactive: 0.105.

`C/C1=C\CC(C)(C)/C=C\CC2(C)OC2CC1` (stereo not given): the “cell viability (log2)” value by setting is: under setting [5], inactive: 0.0693; under setting [6], inactive: 0.00465; under setting [7], inactive: 0.118; under setting [8], inactive: 0.162.

For `Cc1ccc(NC(=O)c2ccc(CN3CCN(C)CC3)cc2)cc1Nc1nc(-c2cccnc2)cs1`, the “cell viability (log2)” value under setting [9] was active: -0.709.
